Data from PubChem BioAssay AID894 (National Center for Advancing Translational Sciences (NCATS), 2007).
Values joined by “and” are separate entries in the source; they are usually repeats but may differ in a detail not shown here. Equal entries are not always repeated. The campaign covered roughly 150,000 compounds. About 6,500 (4.3%) were called active. Inconclusive results, whose numbers are uncertain, are shown with a selection of clear calls. Calls come from the whole dose curve; as a rule, active = well fitted inhibition curve with a large enough effect (not every such curve was filed as active); inconclusive = small, poorly fitted or top-dose-only effect, or another doubt; inactive = no such curve, though single readings can be large or run the other way. Potencies beside an inconclusive call are fits to weak or partial responses and may not hold up.

Target: 15-hydroxyprostaglandin dehydrogenase [NAD(+)] (Homo sapiens) (UniProt P15428)
UniProt P15428, sequence (P15428 whole entry, looked up): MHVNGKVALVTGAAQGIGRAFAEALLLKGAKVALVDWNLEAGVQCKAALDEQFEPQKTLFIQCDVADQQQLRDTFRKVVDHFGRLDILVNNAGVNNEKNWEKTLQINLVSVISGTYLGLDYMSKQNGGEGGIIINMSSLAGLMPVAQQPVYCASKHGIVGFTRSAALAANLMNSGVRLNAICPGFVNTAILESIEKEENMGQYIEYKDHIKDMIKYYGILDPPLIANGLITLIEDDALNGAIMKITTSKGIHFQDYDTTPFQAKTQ
Assay: qHTS Assay for Inhibitors of HPGD (15-Hydroxyprostaglandin Dehydrogenase)
Conditions: purified HPGD, NADH fluorescence kinetic, PGE2 substrate; activity change, negative = inhibition: active compounds read low
Procedure, shortened: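 20 nM HPGD preincubated 15 min at room temperature with compound in 50 mM Tris-HCl pH 8, 0.01% Tween 20. Started with 1 mM NAD+ and 30 uM prostaglandin E2; NADH fluorescence (360/450 nm) read 5 times over 30-s intervals, last minus first.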
% is set by controls: 0 for no effect and ±100 for the full control effect; potency is the fitted concentration of half-maximal effect; tags give direction and shape of the fitted curve.

Potency, inconclusive:
CCCCc1c(C)nc2c(OC)cccc2c1SCCC(=O)O 25.1 µM [inhibitor, partial curve], COC(=O)c1ccnc(SCC(=O)c2ccccc2)c1 15.8 µM [inhibitor, partial curve], Cc1ccc2c(CSc3nnc(C4CC4)n3N)cc(=O)oc2c1 35.5 µM [inhibitor, single point], O=C(Nc1nnc(SCc2c(Cl)cccc2Cl)s1)C1CCCO1 (stereo not drawn) 22.4 µM [inhibitor, partial curve, poor fit], Cc1nn(-c2ccccc2)c(C)c1/C=N/Nc1nc2ccccc2[nH]1 28.2 µM [inhibitor, partial curve], N#Cc1ccccc1-c1cncnc1NCc1cccnc1 1.58 µM [inhibitor, full curve], COc1ccc(-c2cc(OC)c3ccccc3n2)cc1 15.8 µM [inhibitor, partial curve], COCCn1c(SCC(=O)Nc2ccc(NC(=O)c3ccco3)c(OC)c2)nc2ccccc2c1=O 39.8 µM [inhibitor, single point], Cc1cccc(C(=O)N2c3ccccc3C(=O)OC2c2ccc3c(c2)OCO3)c1 (stereo not drawn) 31.6 µM [inhibitor, single point], O=[N+]([O-])c1c(Nc2ccc(O)cc2)cc(N2CCOCC2)c2nonc12 22.4 µM [inhibitor, partial curve], CC1(C)CC(=O)C=C(N2CCCC2)C1 39.8 µM [inhibitor, single point], COc1ccc(Cl)cc1Nc1nc(-c2sc(NC(=O)c3ccccc3)nc2C)cs1 31.6 µM [inhibitor, partial curve], COc1ccccc1C(=O)N1CCN(c2nc3cc(C)c(C)cc3cc2C#N)CC1 22.4 µM [inhibitor, single point], CC12CCC(C(=O)N(CSC(=S)N/N=C\c3ccccc3O)C1=O)C2(C)C (stereo not drawn) 0.112 µM [inhibitor, full curve, poor fit], Cc1ccc(Nc2nnc(-c3ccc4c(c3)OCO4)o2)c(C)c1 3.16 µM [inhibitor, single point], O=C(CSc1nnnn1-c1cccc2c1CCCC2)NC1CCCC1 28.2 µM [inhibitor, partial curve], O=C(Nc1sc2c(c1C(=O)NCc1ccco1)CCCC2)c1ccc2c(c1)OCO2 14.1 µM [inhibitor, partial curve], CC(C)CC(=O)/C(=C\c1ccc(Cl)cc1Cl)n1cncn1 39.8 µM [inhibitor, single point], COc1ccc(OC)c(NC(=O)CSc2ncccn2)c1 35.5 µM [inhibitor, single point], Cc1ccc(-c2nnc(SCC#N)n2N)cc1 35.5 µM [inhibitor, single point], CC(C)n1c(-c2cccs2)nc2ccccc21 28.2 µM [inhibitor, partial curve], O=C1NC(=O)c2c(NC(=O)C3CCCO3)cccc21 (stereo not drawn) 25.1 µM [inhibitor, partial curve], Cc1cc(C)n(-c2nncc(-c3ccccc3)n2)n1 28.2 µM [inhibitor, partial curve], CCOc1ccc2[nH]c(=O)c(CN(Cc3nnnn3Cc3ccco3)C3CCCCC3)cc2c1 14.1 µM [inhibitor, partial curve], Cc1nn(-c2ccccn2)c2c1-c1nc(N3CCOCC3)ncc1CC2 2 µM [inhibitor, partial curve], Brc1ccc(/C=C/C=N/Nc2nc3ccccc3s2)cc1 22.4 µM [inhibitor, partial curve], O=C(Nc1ccc2oc(-c3ccccc3F)nc2c1)c1ncn[nH]1 31.6 µM [inhibitor, partial curve], CCOC(=O)N1CCN(c2c(F)cc3[nH]c(=S)[nH]c3c2Br)CC1 31.6 µM [inhibitor, partial curve], COc1cc2[nH]c(-c3ccc(C)cc3)cc(=O)c2cc1OC 28.2 µM [inhibitor, partial curve] and 35.5 µM [inhibitor, partial curve], COc1cc(C(=O)Nc2ccc(S(=O)(=O)Nc3nccc(C)n3)cc2)cc(OC)c1OC 31.6 µM [inhibitor, single point], CCOc1ccc(NC(=O)Cn2nnc(-c3ccccc3NC(=O)c3cccs3)n2)cc1 25.1 µM [inhibitor, partial curve], COc1ccc(-c2cc(=O)c3cc(C)ccc3[nH]2)cc1 25.1 µM [inhibitor, partial curve], CCSc1ccc2nnc(-c3cccc(F)c3)n2n1 28.2 µM [inhibitor, partial curve], Nc1nc(SCCc2ccccc2)c2[nH]cnc2n1 3.98 µM [inhibitor, partial curve], CCOC(=O)Cn1c(=NC(=O)c2nc3ccccc3s2)sc2cc(S(N)(=O)=O)ccc21 28.2 µM [inhibitor, partial curve], Cc1cc(N2CCN(Cc3ccccc3)CC2)n2nc(C)c(-c3ccccc3)c2n1 28.2 µM [inhibitor, partial curve], COCC(=O)Nc1ccc(Br)cc1 39.8 µM [inhibitor, single point], O=C(O)C(=O)Cc1c[nH]c2ccccc12 39.8 µM [inhibitor, single point], COC(=O)c1sccc1NC(=O)c1cc2c(s1)CCCC2 31.6 µM [inhibitor, partial curve], COc1ccc(/C=C/C(=O)Nc2sc3c(c2C(=O)NCc2cccnc2)CCCC3)cc1 22.4 µM [inhibitor, partial curve], COc1ccccc1-c1coc2c(CN3CCN(C)CC3)c(O)ccc2c1=O 22.4 µM [inhibitor, partial curve], COc1ccc(/C=C/C(=O)NC(=S)NNC(=O)c2ccco2)cc1 11.2 µM [inhibitor, partial curve], Cc1cccc(N2CCN(c3nc4ccc(Cl)cc4n4cnnc34)CC2)c1C 15.8 µM [inhibitor, partial curve]

Potency, active:
O=c1[nH]c(SCc2c(Cl)c(Cl)c(Cl)c(Cl)c2Cl)nc(=S)[nH]1 3.98 µM, CCOc1ccc2c(c1)c1nnc(SCC(=O)N3CCCCC3C)nc1n2C (stereo not drawn) 15.8 µM, Fc1ccccc1CSc1nc2ncc(Br)cc2[nH]1 0.794 µM, CC1CCCN(c2ccc(C(=O)NCC3CCCO3)cn2)C1 (stereo not drawn) 11.2 µM, Cc1ccc(S(=O)(=O)N(C(=O)c2ccncc2)c2ccc(OC(=O)c3ccncc3)cc2)c(C)c1 28.2 µM, O=C(CCc1ccccc1)n1nc(-c2ccco2)nc1SCc1ccccc1 8.91 µM, O=C(Nc1ccc(N2CCCCC2)c(Cl)c1)c1ncn[nH]1 12.6 µM, O=C(c1ccc(Cl)c(Cl)c1)N1CCCC1 20 µM, CCOc1ccc(N2C(=O)C(Cl)=C(Nc3ccccc3O)C2=O)cc1 25.1 µM, O=C(C1CCC(CNS(=O)(=O)c2cccc3cccnc23)CC1)N1CCCC1 (stereo not drawn) 6.31 µM, CCOC(=O)Cc1csc(SCC(=O)Nc2sc3c(c2C(N)=O)CCC3)n1 17.8 µM, O=C(O)c1ccc(C[n+]2c(-c3ccccc3)csc2Nc2ccccc2)cc1 15.8 µM, N#Cc1ccccc1Cn1cc(/C=C/[N+](=O)[O-])c2ccccc21 39.8 µM, O=C(NCCc1c[nH]c2ccc(Cl)cc12)c1cccnc1 15.8 µM, Cc1ccc(NC(=O)CSc2nnc(-c3ccco3)c(-c3ccco3)n2)cc1 11.2 µM, CCOC(=O)CSc1nc2sc3c(c2c(=O)[nH]1)CCCC3 15.8 µM, COc1ccc(C(=O)CN2C(=O)C(C)(C)Oc3ccc(C(=O)N4CCCCCC4)cc32)cc1 8.91 µM

Activity change, negative = inhibition, inactive:
Cc1ccccc1C(=O)Nc1cccc(NC(=S)NC(=O)c2cccs2)c1 -8.22%, CCOc1cccc(NC(=O)Cc2cccs2)c1 -14.7%, CSCCC=O -3.76%, Cc1cc(C)n(C(=O)CCC(=O)NCc2ccccc2)n1 -9.81%, NC(=O)N1CCN(C(=O)c2ccco2)CC1 -13.8%, Cn1c(SCCOc2ccc(Cl)cc2)nnc1-c1ccncc1 -7.71%, O=Cc1cccn1Cc1ccccc1[N+](=O)[O-] -3.89%, CCCCNC(=S)NNC(=O)c1ccco1 -14.2%, O=[N+]([O-])c1ccccc1Nc1ccccc1 -20.2%, O=C(c1ccncc1)N1CCC2(CC1)CN(C(c1ccccc1)c1ccccc1)C2 -11%, CCCCC(=O)NC(=S)Nc1cc(C(=O)O)ccc1Cl -22.1%, CN1CCN(c2ccc(S(=O)(=O)N3CCCCC3)cc2NC(=O)c2ccc(C#N)cc2)CC1 -11.9%, CCC(Sc1nc(N)c(NC(=O)c2ccc(OC)c(OC)c2)c(=O)[nH]1)C(=O)OC (stereo not drawn) -18.5%
